First the molecules themselves.
B1: B4GALNT2_Y538_A533D (peptide)
chain: DLEKTYNTYRS
B2: BCO1_Y264 (peptide)
chain: KMATAYIRRMS
B3: BCHE_Y174_V170M (peptide)
chain: VMSMNYRVGAL
B4: BACE1_Y260_YF (peptide)
chain: RREWFYEVIIV
B5: B4GALT4_Y113_Q116E (peptide)
chain: VSRGRYRPEEC
B6: BBS2_Y644_R643H_YF (peptide)
chain: TMKSHYMELFD
B7: BCLAF1_Y459_Y459D (peptide)
chain: REEKNDKLKET
B8: BAG3_Y457 (peptide)
chain: LMIEEYLTKEL
B9: BAG3_Y457_L462P (peptide)
chain: LMIEEYLTKEP
B10: BBS2_Y648 (peptide)
chain: RYMELYDLNRD
B11: BAG3_Y451 (peptide)
chain: KTDKKYLMIEE
B12: B4GALT6_Y382 (peptide)
chain: APIEDYGGGGG
B13: BACE1_Y260_V265A (peptide)
chain: RREWYYEVIIA
B14: BCLAF1_Y459 (peptide)
chain: REEKNYKLKET
B15: BCO1_Y264_R267S (peptide)
chain: KMATAYIRSMS
B16: BAG3_Y451_E455K (peptide)
chain: KTDKKYLMIKE
B17: BBS4_Y48 (peptide)
chain: YIRKDYEACKA
B18: BAG3_Y114_P115S (peptide)
chain: HPFHVYSQPGM

Some of the results follow. Cut-off read from the data, not from the text of the source: active = 3.2 or more and inactive = the rest. Most of these values are background signal.
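Note: displayed peptides selected on beads carrying the immobilized SH2 domain, with library peptides lacking any tyrosine serving as negative controls.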

One experiment addresses SHP2 C-SH2 domain E139D. Kind of experiment: enrichment score (SH2-bound / input frequency) (ratio); bacterial display of known human phosphotyrosine sites (pTyr-Var adds point mutants) read by sequencing; higher = stronger binding; tyrosines were phosphorylated by kinases first. The conditions noted are these: peptide library: pTyr-Var.
On to B1, for which the enrichment score was inactive: 0.8.
The same measure, in the same setting: the same measure for B2: inactive: 0.205; for B3: inactive: 1.07.
Same read-out and setting: the same measure for B4: inactive: 0.544; for B5: inactive: 0.241.
For the molecule B6, the enrichment score was inactive: 1.11.
Still for that read-out and setting: the same measure for B7: inactive: 0.451; for B8: inactive: 1.22; for B9: inactive: 0.816.
Same read-out and setting: the same measure for B10: inactive: 0.929.
On the same count and under the same terms, the same measure for B11: inactive: 0.792; for B12: inactive: 1.12.
With B13, the enrichment score is inactive: 0.275.
On the same count and under the same terms, the result for B14 reads inactive: 0.533.
The same measure, in the same setting: the same measure for B15: inactive: 0.836; for B16: inactive: 0.889; for B17: inactive: 0.628.
The same measure, in the same setting: the same measure for B18: inactive: 1.69.

In another experiment the target is SHP2 C-SH2 domain wild-type. The experiment is described as above. The conditions noted are these: peptide library: pTyr-Var.
On to B1, for which the enrichment score is inactive: 0.602.
Still for that read-out and setting: the result for B2 reads inactive: 0.522.
Still for that read-out and setting: the result for B3 reads inactive: 0.884; that for B4, inactive: 0.327; that for B5, inactive: 0.234.
Turning to B6, the enrichment score was inactive: 1.29.
The same measure, in the same setting: the same measure for B7: inactive: 0.53; for B8: inactive: 0.779.
Regarding B9, the enrichment score was inactive: 0.843.
Same read-out and setting: the same measure for B10: inactive: 1.06.
With B11, the enrichment score was inactive: 0.71.
Regarding B12, the enrichment score is inactive: 0.541.
On the same count and under the same terms, the same measure for B13: inactive: 0.217.
On to B14, for which the enrichment score was inactive: 0.452.
On to B15, for which the enrichment score was inactive: 0.717.
Still for that read-out and setting: the same measure for B16: inactive: 0.926; for B17: inactive: 0.557; for B18: inactive: 1.1.

The next experiment addresses SHP2 N-SH2 domain L43F. The description is as above. The conditions noted are these: peptide library: pTyr-Var.
Regarding B1, the enrichment score was inactive: 0.638.
On the same count and under the same terms, the result for B2 reads inactive: 0.267.
On the same count and under the same terms, the result for B3 reads inactive: 0.958.
Still for that read-out and setting: the same measure for B4: inactive: 0.364.
Turning to B5, the enrichment score was inactive: 0.256.
Same read-out and setting: the same measure for B6: active: 3.52.
As for B7, the enrichment score is inactive: 0.388.
Turning to B8, the enrichment score was inactive: 1.04.
For B9, the enrichment score was inactive: 0.686.
On the same count and under the same terms, the result for B10 reads inactive: 2.46; that for B11, inactive: 0.691; that for B12, inactive: 0.697.
Same read-out and setting: the result for B13 reads inactive: 0.286.
The same measure, in the same setting: the same measure for B14: inactive: 0.451; for B15: inactive: 0.767.
As to B16, the enrichment score is inactive: 0.941.
The same measure, in the same setting: the result for B17 reads inactive: 0.611; that for B18, inactive: 1.66.

For the next experiment, the target named is SHP2 N-SH2 domain T42A. The experiment is described as above. The note with it: peptide library: pTyr-Var.
On to B1, for which the enrichment score was inactive: 0.529.
On the same count and under the same terms, the same measure for B2: inactive: 0.252; for B3: inactive: 0.971; for B4: inactive: 0.242.
Same read-out and setting: the same measure for B5: inactive: 0.204; for B6: active: 7.68; for B7: inactive: 0.307.
B8: the enrichment score is inactive: 1.08.
Same read-out and setting: the result for B9 reads inactive: 0.524; that for B10, active: 4.35.
Same read-out and setting: the result for B11 reads inactive: 0.633; that for B12, inactive: 0.433.
Regarding B13, the enrichment score was inactive: 0.425.
Turning to B14, the enrichment score was inactive: 0.378.
Same read-out and setting: the result for B15 reads inactive: 0.643.
As for B16, the enrichment score is inactive: 0.685.
For B17, the enrichment score is inactive: 0.613.
The same measure, in the same setting: the same measure for B18: inactive: 1.61.

A further experiment addresses SHP2 N-SH2 domain T52S. The experiment is described as above. The note with it: peptide library: pTyr-Var.
On to B1, for which the enrichment score is inactive: 0.606.
As to B2, the enrichment score was inactive: 0.212.
Still for that read-out and setting: the same measure for B3: inactive: 1.03; for B4: inactive: 0.329; for B5: inactive: 0.219.
Still for that read-out and setting: the result for B6 reads active: 3.92; that for B7, inactive: 0.44; that for B8, inactive: 1.03.
The same measure, in the same setting: the same measure for B9: inactive: 0.567.
B10: the enrichment score is inactive: 3.01.
The same measure, in the same setting: the same measure for B11: inactive: 0.698; for B12: inactive: 0.627.
Same read-out and setting: the same measure for B13: inactive: 0.305; for B14: inactive: 0.621; for B15: inactive: 0.731.
Still for that read-out and setting: the same measure for B16: inactive: 0.781; for B17: inactive: 0.749; for B18: inactive: 1.42.

In another experiment the target is SHP2 N-SH2 domain wild-type. The description is as above. The note with it: peptide library: pTyr-Var.
On to B1, for which the enrichment score is inactive: 0.867.
On the same count and under the same terms, the same measure for B2: inactive: 0.265.
The same measure, in the same setting: the same measure for B3: inactive: 1.25; for B4: inactive: 0.274.
The same measure, in the same setting: the result for B5 reads inactive: 0.228.
Consider B6, for which the enrichment score is inactive: 1.36.
Same read-out and setting: the same measure for B7: inactive: 0.438; for B8: inactive: 0.966; for B9: inactive: 0.636.
Still for that read-out and setting: the result for B10 reads inactive: 1.08; that for B11, inactive: 0.723.
On the same count and under the same terms, the result for B12 reads inactive: 0.661.
As for B13, the enrichment score is inactive: 0.154.
Still for that read-out and setting: the same measure for B14: inactive: 0.433; for B15: inactive: 0.669.
Same read-out and setting: the same measure for B16: inactive: 0.909.
As to B17, the enrichment score was inactive: 0.614.
On the same count and under the same terms, the result for B18 reads inactive: 1.14.

The values are drawn from the supplement of paper PMC10369915.
